Data published in patent US20100184636A1 (POSTECH ACADEMY INDUSTRY FOUNDATION, published 2010).

Biological target: myc-mTOR^wt (human, UniProt P42345)
Assay: co-IP of myc-mTOR with PLD2 mutants (FIG. 6)
Description: After harvesting COS7 cells, total extracts were prepared by brief sonication in ice-cold lysis buffer (40 mM HEPES pH7.5, 120 mM NaCl, 1 mM EDTA, 10 mM pyrophosphate, 10 mM glycerophosphate, 50 mM NaF, 1.5 mM Na₃VO₄, 0.5% CHAPS, 1 mM PMSF, protease inhibitor cocktails). Clarified extracts were mixed with 2 μg of the respective antibodies. Then protein A-Sepharose beads were added to isolate the antibody complex. After four washings with lysis buffer, the final immunoprecipitates were washed once with wash buffer (50 mM HEPES pH7.5, 150 mM NaCl), and then subjected to SDS-PAGE using Hyperfilm (Amersham Pharmacia Biotech), nitrocellulose membranes (Watmann), Power supply (Amersham Pharmacia Biotech), Electrophoretic Transfer unit (Hoefer Scientific Instruments), and ECL™ (Amersham Pharmacia Biotech).

Binder	binding result
PLD2^F265A (enzyme, also called PLD2 point mutant F265A) not shown	no binding
PLD2^E266R (enzyme, also called PLD2 point mutant E266R) not shown	no binding
